In the supplement of paper PMC4967469:
Lines with a small IC50 respond at low doses; where the fit passes the top or lowest dose, that dose stands as a limit. AUC sums up the same curve from the lowest dose to the 256-fold higher top dose; values near 1 show little effect. For some assays here: The top dose, if marked as inferred, was calculated from the reported fits. For some assays here: Drugs with an entry number were screened twice under separate entries, and the two screens often disagree.

Experiments:
Experiment in all cases: Viability of human cancer cell lines after 72 h of drug (GDSC screen)
[1] = compound: Oc1cccc(-c2nc(N3CCOCC3)c3oc4ncccc4c3n2)c1 [PI-103]; conditions: top dose 10.24 µM
Procedure: (§1)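 Human cancer cell lines in 384-well plates, medium with 10% serum, drug for 72 h over a 256-fold dose range (nine 2-fold or five 4-fold steps up to the top dose). Adherent lines were fixed and stained with the nucleic acid dye Syto60, suspension lines read with resazurin; signal relative to control wells, capped at 0 and 100%. One two-parameter sigmoid per drug and line, fitted in a mixed model over all curves with the slope shared within a line.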

[2] = compound: O=C(NCCCNc1nc(Nc2cccc(NC(=O)N3CCCC3)c2)ncc1I)c1cccs1 [BX-795]; conditions: top dose 5 µM; top dose inferred
Procedure: as §1

[3] = compound: CCn1c(-c2nonc2N)nc2c(C#CC(C)(C)O)ncc(OC[C@H]3CCCNC3)c21 [GSK690693]; conditions: top dose 10.24 µM; top dose inferred
Procedure: as §1

[4] = compound: Cc1cccc(-c2[nH]c(C(C)(C)C)nc2-c2ccc3c(c2)OCO3)n1 [SB-505124]; conditions: top dose 10 µM; top dose inferred
Procedure: as §1

[5] = compound: COc1cc2c(NC3CCN(C(C)C)CC3)nc(C3CCCCC3)nc2cc1OCCCN1CCCC1 [UNC0638]
Procedure: as §1

[6] = compound: CC1=C(/C=C/C(C)=C/C=C/C(C)=C/C(=O)O)C(C)(C)CCC1 [Tretinoin]; conditions: top dose 10 µM; top dose inferred
Procedure: as §1

[7] = top dose 20 µM, screen: GDSC drug entry 1236, top dose inferred
[8] = top dose 40 µM, screen: GDSC drug entry 245

Cell Line | AUC [1] | IC50 [1] [µM] | AUC [2] | IC50 [2] [µM] | AUC [3] | IC50 [3] [µM] | AUC [4] | IC50 [4] [µM] | AUC [5, 7] | IC50 [5, 7] [µM] | AUC [5, 8] | IC50 [5, 8] [µM] | AUC [6] | IC50 [6] [µM]
COR-L23 (large cell lung carcinoma, adherent) | 0.405 | 0.353 | 0.872 | 4.55 | 0.955 | > 10.2 | 0.969 | > 10 | 0.825 | 11.6 | 0.724 | 10.6 | 0.977 | > 10
COR-L321 (lung, suspension) | 0.571 | 1 | 0.865 | 4.39 | 0.956 | > 10.2 | 0.985 | > 10 | 0.808 | 10.3 | 0.663 | 7.08 | 0.955 | > 10
CP50-MEL-B (melanoma, adherent) | 0.871 | 9.44 | 0.909 | > 5 | 0.985 | > 10.2 | 0.986 | > 10 | 0.816 | 10.9 | 0.784 | 16.8 | 0.879 | > 10
CS1 (bone, adherent) | 0.246 | 0.107 | 0.819 | 3.28 | 0.893 | > 10.2 | 0.967 | > 10 | 0.792 | 10.2 | 0.759 | 15.5 | 0.984 | > 10
Ca9-22 (head and neck, adherent) | 0.645 | 1.56 | 0.821 | 2.62 | 0.984 | > 10.2 | 0.96 | > 10 | 0.854 | 13.9 | 0.936 | > 40 | 0.981 | > 10
Ca-Ski (cervix, adherent) | 0.142 | 0.0404 | 0.864 | > 5 | 0.58 | 1.09 | 0.962 | > 10 | 0.71 | 5.29 | 0.688 | 9.05 | 0.979 | > 10
CaR-1 (large intestine, adherent) | 0.743 | 4.64 | 0.866 | > 5 | 0.978 | > 10.2 | 0.975 | > 10 | 0.975 | > 20 | 0.931 | > 40 | 0.965 | > 10
Calu-3 (lung adenocarcinoma, adherent) | 0.922 | > 10.2 | 0.919 | > 5 | 0.91 | > 10.2 | 0.98 | > 10 | 0.955 | > 20 | 0.909 | > 40 | 0.961 | > 10
Caov-4 (ovary, adherent) | 0.81 | 8.82 | 0.971 | > 5 | 0.98 | > 10.2 | 0.973 | > 10 | 0.976 | > 20 |  |  | 0.959 | > 10
Capan-2 (pancreas, adherent) | 0.705 | 2.78 | 0.928 | > 5 | 0.889 | > 10.2 | 0.908 | > 10 | 0.836 | 17.5 | 0.919 | > 40 | 0.972 | > 10
D-392MG (glioma, adherent) | 0.743 | 4.19 | 0.84 | > 5 | 0.963 | > 10.2 | 0.978 | > 10 | 0.895 | > 20 | 0.835 | > 40 | 0.951 | > 10
D-423MG (glioma, adherent) | 0.429 | 0.391 | 0.732 | 1.68 | 0.853 | > 10.2 | 0.978 | > 10 | 0.821 | 15.1 | 0.753 | 16.1 | 0.974 | > 10
D-542MG (glioma, adherent) | 0.818 | 7.52 | 0.925 | > 5 | 0.984 | > 10.2 | 0.981 | > 10 | 0.845 | 19.6 | 0.943 | > 40 | 0.984 | > 10
D-566MG (glioma, adherent) | 0.558 | 0.921 | 0.733 | 1.43 | 0.962 | > 10.2 | 0.874 | 9.52 | 0.873 | 18.7 | 0.842 | 27.6 | 0.908 | > 10
DAN-G (pancreas, adherent) | 0.489 | 0.599 | 0.92 | > 5 | 0.983 | > 10.2 | 0.991 | > 10 | 0.851 | 12.4 | 0.871 | 29.7 | 0.99 | > 10
DBTRG-05MG (glioma, adherent) | 0.789 | 5.41 | 0.881 | > 5 | 0.947 | > 10.2 | 0.971 | > 10 | 0.961 | > 20 | 0.759 | 16.2 | 0.964 | > 10
DK-MG (glioma, adherent) | 0.662 | 2.26 | 0.721 | 1.84 | 0.978 | > 10.2 | 0.975 | > 10 | 0.792 | 14.5 | 0.815 | 37.3 | 0.978 | > 10
DMS-273 (small cell lung carcinoma, adherent) | 0.229 | 0.0984 | 0.869 | > 5 | 0.555 | 0.911 | 0.983 | > 10 | 0.816 | 12 | 0.766 | 15.5 | 0.95 | > 10
DOV13 (ovary, adherent) | 0.967 | > 10.2 | 0.801 | 2.9 | 0.967 | > 10.2 | 0.861 | > 10 | 0.776 | 9.22 | 0.799 | 22.6 | 0.927 | > 10
Detroit562 (head and neck, adherent) | 0.89 | > 10.2 | 0.819 | 2.71 | 0.979 | > 10.2 | 0.987 | > 10 | 0.894 | > 20 | 0.986 | > 40 | 0.978 | > 10
